The list shows a part of the results.
How the values were obtained:
Assay in all cases: glycan array binding signal (z-score within array); higher = stronger binding
Conditions in all cases: glycan notation: IUPAC condensed, linker removed
[1] = biological target: Gal(b1-3)GlcNAc(b1-2)Man(a1-3)[Gal(b1-3)GlcNAc(b1-2)Man(a1-6)]Man(b1-4)GlcNAc(b1-4)GlcNAc
Procedure, shortened: (§1)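 The binding signal is a Z-score computed within each array. Data were drawn from 3228 arrays in the Consortium for Functional Glycomics database, restricted to those with a known protein sequence. Scores were averaged over arrays of the same protein sequence at different concentrations or buffers, and over linkers, and negative values can be taken as non-binding.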

[2] = biological target: Gal(b1-3)GlcNAc(b1-2)Man(a1-3)[Gal(b1-3)GlcNAc(b1-2)Man(a1-6)]Man(b1-4)GlcNAc(b1-4)[Fuc(a1-6)]GlcNAc
Procedure, shortened: as §1

[3] = biological target: Gal(b1-3)GlcNAc(b1-2)Man(a1-3)[GlcNAc(b1-4)][Gal(b1-3)GlcNAc(b1-2)Man(a1-6)]Man(b1-4)GlcNAc(b1-4)GlcNAc
Procedure, shortened: as §1

[4] = biological target: Gal(b1-3)GlcNAc(b1-2)[Gal(b1-3)GlcNAc(b1-6)]Man(a1-6)[Gal(b1-3)GlcNAc(b1-2)Man(a1-3)]Man(b1-4)GlcNAc(b1-4)GlcNAc
Procedure, shortened: as §1

[5] = biological target: Gal(b1-3)GlcNAc(b1-3)Gal(b1-3)GlcNAc
Procedure, shortened: as §1

[6] = biological target: Gal(b1-3)GlcNAc(b1-3)Gal(b1-4)Glc
Procedure, shortened: as §1

[7] = biological target: Gal(b1-3)GlcNAc(b1-3)Gal(b1-4)GlcNAc
Procedure, shortened: as §1

[8] = biological target: Gal(b1-3)GlcNAc(b1-3)Gal(b1-4)GlcNAc(b1-2)Man(a1-3)[Gal(b1-3)GlcNAc(b1-3)Gal(b1-4)GlcNAc(b1-2)Man(a1-6)]Man(b1-4)GlcNAc(b1-4)GlcNAc
Procedure, shortened: as §1

[9] = biological target: Gal(b1-3)GlcNAc(b1-3)Gal(b1-4)GlcNAc(b1-2)[Gal(b1-3)GlcNAc(b1-3)Gal(b1-4)GlcNAc(b1-6)]Man(a1-6)[Gal(b1-3)GlcNAc(b1-3)Gal(b1-4)GlcNAc(b1-2)Man(a1-3)]Man(b1-4)GlcNAc(b1-4)[Fuc(a1-6)]GlcNAc
Procedure, shortened: as §1

[10] = biological target: Gal(b1-3)GlcNAc(b1-3)Gal(b1-4)GlcNAc(b1-3)Gal(b1-4)GlcNAc(b1-2)[Gal(b1-3)GlcNAc(b1-3)Gal(b1-4)GlcNAc(b1-3)Gal(b1-4)GlcNAc(b1-6)]Man(a1-6)[Gal(b1-3)GlcNAc(b1-3)Gal(b1-4)GlcNAc(b1-3)Gal(b1-4)GlcNAc(b1-2)Man(a1-3)]Man(b1-4)GlcNAc(b1-4)[Fuc(a1-6)]GlcNAc
Procedure, shortened: as §1

[11] = biological target: Gal(b1-3)GlcNAc(b1-3)Gal(b1-4)GlcNAc(b1-6)[Gal(b1-3)GlcNAc(b1-3)]Gal(b1-4)Glc
Procedure, shortened: as §1

[12] = biological target: Gal(b1-3)GlcNAc(b1-3)Gal(b1-4)[Fuc(a1-3)]GlcNAc
Procedure, shortened: as §1

[13] = biological target: Gal(b1-3)GlcNAc(b1-3)Gal(b1-4)[Fuc(a1-3)]GlcNAc(b1-6)[Gal(b1-3)GlcNAc(b1-3)]Gal(b1-4)Glc
Procedure, shortened: as §1

[14] = biological target: Gal(b1-3)GlcNAc(b1-3)GalNAc
Procedure, shortened: as §1

[15] = biological target: Gal(b1-3)GlcNAc(b1-6)Gal(b1-4)GlcNAc
Procedure, shortened: as §1

[16] = biological target: Gal(b1-3)GlcNAc(b1-6)GalNAc
Procedure, shortened: as §1

[17] = biological target: Gal(b1-3)GlcNAc(b1-6)[Gal(b1-3)]GalNAc
Procedure, shortened: as §1

Gal(b1-3)GlcNAc6S = biological target: Gal(b1-3)GlcNAc6S
Procedure, shortened: as §1

[18] = biological target: Gal(b1-3)[Fuc(a1-4)]GlcNAc
Procedure, shortened: as §1

[19] = biological target: Gal(b1-3)[Fuc(a1-4)]GlcNAc(b1-2)Man
Procedure, shortened: as §1

[20] = biological target: Gal(b1-3)[Fuc(a1-4)]GlcNAc(b1-2)Man(a1-3)[Gal(b1-3)[Fuc(a1-4)]GlcNAc(b1-2)Man(a1-6)]Man(b1-4)GlcNAc(b1-4)[Fuc(a1-6)]GlcNAc
Procedure, shortened: as §1

[21] = biological target: Gal(b1-3)[Fuc(a1-4)]GlcNAc(b1-3)Gal(b1-3)[Fuc(a1-4)]GlcNAc
Procedure, shortened: as §1

[22] = biological target: Gal(b1-3)[Fuc(a1-4)]GlcNAc(b1-3)Gal(b1-4)[Fuc(a1-3)]GlcNAc
Procedure, shortened: as §1

[23] = biological target: Gal(b1-3)[Fuc(a1-4)]GlcNAc(b1-6)GalNAc
Procedure, shortened: as §1

[24] = biological target: Gal(b1-3)[GlcNAc(b1-6)]GalNAc
Procedure, shortened: as §1

[25] = biological target: Gal(b1-3)[Neu5Ac(a2-6)]GalNAc
Procedure, shortened: as §1

[26] = biological target: Gal(b1-3)[Neu5Ac(a2-6)]GlcNAc(b1-4)Gal(b1-4)Glc
Procedure, shortened: as §1

[27] = biological target: Gal(b1-3)[Neu5Ac(b2-6)]GalNAc
Procedure, shortened: as §1

Gal(b1-4)Gal = biological target: Gal(b1-4)Gal
Procedure, shortened: as §1

[28] = biological target: Gal(b1-4)GalNAc(a1-3)[Fuc(a1-2)]Gal(b1-4)GlcNAc
Procedure, shortened: as §1

[29] = biological target: Gal(b1-4)GalNAc(b1-3)[Fuc(a1-2)]Gal(b1-4)GlcNAc
Procedure, shortened: as §1

Gal(b1-4)Glc = biological target: Gal(b1-4)Glc
Procedure, shortened: as §1

Gal(b1-4)Glc6S = biological target: Gal(b1-4)Glc6S
Procedure, shortened: as §1

Gal(b1-4)GlcNAc = biological target: Gal(b1-4)GlcNAc
Procedure, shortened: as §1

[30] = biological target: Gal(b1-4)GlcNAc(a1-6)Gal(b1-4)GlcNAc
Procedure, shortened: as §1

Gal(b1-4)GlcNAc(b1-2)Man = biological target: Gal(b1-4)GlcNAc(b1-2)Man
Procedure, shortened: as §1

[31] = biological target: Gal(b1-4)GlcNAc(b1-2)Man(a1-3)Man(b1-4)GlcNAc(b1-4)GlcNAc
Procedure, shortened: as §1

[32] = biological target: Gal(b1-4)GlcNAc(b1-2)Man(a1-3)[Gal(b1-4)GlcNAc(b1-2)Man(a1-6)]Man(b1-4)GlcNAc(b1-4)GlcNAc
Procedure, shortened: as §1

[33] = biological target: Gal(b1-4)GlcNAc(b1-2)Man(a1-3)[Gal(b1-4)GlcNAc(b1-2)Man(a1-6)]Man(b1-4)GlcNAc(b1-4)[Fuc(a1-6)]GlcNAc
Procedure, shortened: as §1

[34] = biological target: Gal(b1-4)GlcNAc(b1-2)Man(a1-3)[Gal(b1-4)GlcNAc(b1-2)Man(a1-6)][Gal(b1-4)GlcNAc(b1-4)]Man(b1-4)GlcNAc(b1-4)[Fuc(a1-6)]GlcNAc
Procedure, shortened: as §1

[35] = biological target: Gal(b1-4)GlcNAc(b1-2)Man(a1-3)[Gal(b1-4)GlcNAc(b1-2)Man(a1-6)][GlcNAc(b1-4)]Man(b1-4)GlcNAc(b1-4)[Fuc(a1-6)]GlcNAc
Procedure, shortened: as §1

[36] = biological target: Gal(b1-4)GlcNAc(b1-2)Man(a1-3)[GlcNAc(b1-2)Man(a1-6)]Man(b1-4)GlcNAc(b1-4)GlcNAc
Procedure, shortened: as §1

[37] = biological target: Gal(b1-4)GlcNAc(b1-2)Man(a1-3)[GlcNAc(b1-4)][Gal(b1-4)GlcNAc(b1-2)Man(a1-6)]Man(b1-4)GlcNAc(b1-4)GlcNAc
Procedure, shortened: as §1

[38] = biological target: Gal(b1-4)GlcNAc(b1-2)Man(a1-3)[Man(a1-6)]Man(b1-4)GlcNAc(b1-4)GlcNAc
Procedure, shortened: as §1

[39] = biological target: Gal(b1-4)GlcNAc(b1-2)Man(a1-6)Man(b1-4)GlcNAc(b1-4)GlcNAc
Procedure, shortened: as §1

B1: LFA (Limax flavus) (protein)
chain: MSVLFLAASFLLLASFELVAAQGCPRQDPGDWIVIQRRLNADVNFYRGWADYKHGFGDLRCNFWLGNEKIHQLTSHGRYKLRVEFTFNNKSYFAEYSTFKILGEADKYKLQVGGYSGNAGDALTFHNGMAFSTNDRDNDADSIDCAKVYHGAWWYKTCHESNLNGKWGSKKYGEGLNWKAKTTFTATATSSLLKIKALK
- glycan array binding signal (z-score) [1]: 0.206
- glycan array binding signal (z-score) [2]: -0.157
- glycan array binding signal (z-score) [3]: -0.23
- glycan array binding signal (z-score) [4]: -0.241
- glycan array binding signal (z-score) [5]: -0.356
- glycan array binding signal (z-score) [6]: -0.282
- glycan array binding signal (z-score) [7]: -0.352
- glycan array binding signal (z-score) [8]: -0.082
- glycan array binding signal (z-score) [9]: 0.266
- glycan array binding signal (z-score) [10]: 0.089
- glycan array binding signal (z-score) [11]: -0.356
- glycan array binding signal (z-score) [12]: -0.347
- glycan array binding signal (z-score) [13]: -0.365
- glycan array binding signal (z-score) [14]: 0.675
- glycan array binding signal (z-score) [15]: -0.379
- glycan array binding signal (z-score) [16]: 0.284
- glycan array binding signal (z-score) [17]: -0.21
- glycan array binding signal (z-score) (Gal(b1-3)GlcNAc6S): -0.245
- glycan array binding signal (z-score) [18]: -0.277
- glycan array binding signal (z-score) [19]: 0.034
- glycan array binding signal (z-score) [20]: 0.669
- glycan array binding signal (z-score) [21]: 0.136
- glycan array binding signal (z-score) [22]: -0.269
- glycan array binding signal (z-score) [23]: 0.084
- glycan array binding signal (z-score) [24]: 0.136
- glycan array binding signal (z-score) [25]: 0.048
- glycan array binding signal (z-score) [26]: -0.167
- glycan array binding signal (z-score) [27]: 0.143
- glycan array binding signal (z-score) (Gal(b1-4)Gal): 0.372
- glycan array binding signal (z-score) [28]: -0.29
- glycan array binding signal (z-score) [29]: -0.289
- glycan array binding signal (z-score) (Gal(b1-4)Glc): -0.29
- glycan array binding signal (z-score) (Gal(b1-4)Glc6S): -0.169
- glycan array binding signal (z-score) (Gal(b1-4)GlcNAc): -0.332
- glycan array binding signal (z-score) [30]: -0.293
- glycan array binding signal (z-score) (Gal(b1-4)GlcNAc(b1-2)Man): -0.198
- glycan array binding signal (z-score) [31]: -0.292
- glycan array binding signal (z-score) [32]: -0.307
- glycan array binding signal (z-score) [33]: -0.047
- glycan array binding signal (z-score) [34]: -0.389
- glycan array binding signal (z-score) [35]: -0.175
- glycan array binding signal (z-score) [36]: -0.381
- glycan array binding signal (z-score) [37]: 0.181
- glycan array binding signal (z-score) [38]: -0.193
- glycan array binding signal (z-score) [39]: -0.28
